{"source": "PubChem BioAssay AID1347055", "about": "(National Center for Advancing Translational Sciences (NCATS), 2019)", "note": "The campaign covered roughly 54,000 compounds. About 120 (0.22%) were called active. Inconclusive means that the source gave no clear call. Such entries were picked first, then a sample of the others. The call rests on the fitted dose curve; in most records, active means well fitted inhibition curve with a large enough effect; inconclusive means small, poorly fitted or top-dose-only effect, or effect the other way; inactive means flat fitted curve, though single readings scatter. No potency is given beside an inconclusive call; the fits are too rough. Potency means the concentration at half of the fitted maximal effect; tags describe the fitted curve by direction and shape."}
{"target": "Fumarate hydratase, mitochondrial (Homo sapiens) (UniProt P07954)", "sequence (P07954 whole entry, looked up)": "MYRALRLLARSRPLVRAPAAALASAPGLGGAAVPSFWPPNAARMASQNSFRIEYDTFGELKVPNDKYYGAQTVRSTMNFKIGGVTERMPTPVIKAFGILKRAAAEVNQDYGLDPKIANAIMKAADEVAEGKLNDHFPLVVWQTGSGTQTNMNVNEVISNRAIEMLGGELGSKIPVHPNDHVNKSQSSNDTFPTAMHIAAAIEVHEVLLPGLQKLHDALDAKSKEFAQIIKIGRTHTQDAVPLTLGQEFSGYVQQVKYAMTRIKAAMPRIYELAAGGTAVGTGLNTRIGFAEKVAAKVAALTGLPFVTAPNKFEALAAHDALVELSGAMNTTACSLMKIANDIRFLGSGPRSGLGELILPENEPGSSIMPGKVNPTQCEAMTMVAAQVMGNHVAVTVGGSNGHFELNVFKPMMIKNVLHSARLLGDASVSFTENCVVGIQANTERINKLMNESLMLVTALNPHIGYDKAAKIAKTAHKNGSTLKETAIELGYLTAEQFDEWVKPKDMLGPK", "assay": "Identification of activators of human fumarate hydratase by quantitative high-throughput screening; further: the screen sought activators but most active calls are inhibition curves; nearly all actives have a fitted effect of over 45% in size", "conditions": "FH coupled MDH/diaphorase resazurin fluorescence, 15 min; series mostly up to 79.9 µM"}
{"compound": "Clc1cccc(C2=NC(c3cccs3)=Nc3ccc(Br)cc3N2)c1", "Potency": "inconclusive [inhibitor, single point]"}
{"compound": "CCOc1cccc(CC(=O)N2CCc3c([nH]c4ccccc34)C2c2ccc(SC)cc2)c1OCC", "note": "(stereo unspecified)", "Potency": "inconclusive [inhibitor, partial curve, poor fit]"}
{"compound": "COc1ccccc1/C=C/c1nc(C#N)c(NCC(C)C)o1", "Potency": "inconclusive [inhibitor, partial curve, poor fit]"}
{"compound": "CCCc1nnc(NC(=O)Nc2ccccc2Cl)s1", "Potency": "inactive"}
{"compound": "CC[C@@H]1C=C(C)C[C@H](C)C[C@H](OC)[C@H]2O[C@@](O)(C(=O)C(=O)N3CCCC[C@@H]3C(=O)O[C@H](C(C)=C[C@@H]3CC[C@H](Cl)[C@H](OC)C3)[C@H](C)[C@@H](O)CC1=O)[C@H](C)C[C@H]2OC", "Potency": "inactive"}
{"compound": "O=C(CSc1ncc(-c2ccccc2)[nH]1)Nc1cccc(C(F)(F)F)c1", "Potency": "inconclusive [inhibitor, single point]"}
{"compound": "CCS(=O)c1nc(-c2cccc(OCc3ccccc3)c2)cc(C(F)(F)F)n1", "note": "(stereo unspecified)", "Potency": "inactive"}
{"compound": "COc1cc(-c2nc(-c3cccc(Cl)c3)c(-c3ccccc3)[nH]2)cc(OC)c1OC", "Potency": "inconclusive [inhibitor, single point]"}
{"compound": "COc1ccc(CCNC(=O)c2ccc3c(Cl)c4c(nc3c2)CCCC4)c(OC)c1", "Potency": "inconclusive [inhibitor, full curve, poor fit]"}
{"compound": "Nc1ncnc2c1ncn2CCNCCCCCO", "Potency": "inactive"}
{"compound": "O=C(O)c1ccc(NC(=O)c2cn(-c3ccccc3)nc2-c2ccc(Br)cc2)cc1", "Potency": "inconclusive [inhibitor, partial curve, poor fit]"}
{"compound": "COc1ccc(-c2noc(COc3ccc(Br)cc3C)n2)cc1OC", "Potency": "inconclusive [inhibitor, partial curve, poor fit]"}
{"compound": "COc1ccc(CNC(=O)Nc2ncc([N+](=O)[O-])s2)cc1", "Potency": "inconclusive [activator, partial curve, poor fit]"}
{"compound": "O=C(O)c1ccc2c3c1cccc3c(=O)n1c3ccccc3nc21", "Potency": "inconclusive [inhibitor, partial curve, poor fit]"}
{"compound": "CCOc1ccccc1CNC(=O)CCc1c(C)nn(-c2ccc(N3CCOCC3)nn2)c1C", "Potency": "inconclusive [activator, single point]"}
{"compound": "CCc1ccc(CN(Cc2ccco2)C(=O)COc2ccc(Cl)c(C)c2)cc1", "Potency": "inconclusive [inhibitor, partial curve, poor fit]"}
